Laboratory results taken from patent US20230174604A1.

Biological target: T1, IL-2Rβ IH-Biotin (biotin-labeled human IL-2Rβ, UniProt P14784 aa27-240, with C-terminal avi tag and His6 tag) (human) (UniProt P14784)
T1 sequence: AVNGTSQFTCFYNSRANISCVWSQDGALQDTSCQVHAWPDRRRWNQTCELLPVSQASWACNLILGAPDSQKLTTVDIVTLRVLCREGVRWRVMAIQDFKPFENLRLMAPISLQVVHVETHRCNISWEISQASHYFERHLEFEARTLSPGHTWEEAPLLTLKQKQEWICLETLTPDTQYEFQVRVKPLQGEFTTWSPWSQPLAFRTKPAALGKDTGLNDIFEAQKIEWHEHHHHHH
Assay: ForteBio BLI, biotinylated receptor on SA sensor, 100 nM IL-2-FC in solution, 1:1 model (avidity)

IL-2^WT-FC fusion protein (IL-2^WT-2*(G4S)-FcLALA) (chain not printed) (Fc fusion; biotin on the avi tag (enzymatic labeling with BirA); other documents disagree on this pair)
Kd: 41 nM
